Among all 310,000 compounds or so, about 2,200 (0.71%) showed an effect of 50% or more. The effect is printed as a negative number. Some of the results follow.
Each molecule was assayed against human ether-à-go-go-related gene (hERG) potassium channel (human, UniProt Q12809) (assay: primary screen, population patch clamp on CHO cells stably expressing hERG).
Chain of human ether-à-go-go-related gene (hERG) potassium channel (Q12809 whole entry, looked up): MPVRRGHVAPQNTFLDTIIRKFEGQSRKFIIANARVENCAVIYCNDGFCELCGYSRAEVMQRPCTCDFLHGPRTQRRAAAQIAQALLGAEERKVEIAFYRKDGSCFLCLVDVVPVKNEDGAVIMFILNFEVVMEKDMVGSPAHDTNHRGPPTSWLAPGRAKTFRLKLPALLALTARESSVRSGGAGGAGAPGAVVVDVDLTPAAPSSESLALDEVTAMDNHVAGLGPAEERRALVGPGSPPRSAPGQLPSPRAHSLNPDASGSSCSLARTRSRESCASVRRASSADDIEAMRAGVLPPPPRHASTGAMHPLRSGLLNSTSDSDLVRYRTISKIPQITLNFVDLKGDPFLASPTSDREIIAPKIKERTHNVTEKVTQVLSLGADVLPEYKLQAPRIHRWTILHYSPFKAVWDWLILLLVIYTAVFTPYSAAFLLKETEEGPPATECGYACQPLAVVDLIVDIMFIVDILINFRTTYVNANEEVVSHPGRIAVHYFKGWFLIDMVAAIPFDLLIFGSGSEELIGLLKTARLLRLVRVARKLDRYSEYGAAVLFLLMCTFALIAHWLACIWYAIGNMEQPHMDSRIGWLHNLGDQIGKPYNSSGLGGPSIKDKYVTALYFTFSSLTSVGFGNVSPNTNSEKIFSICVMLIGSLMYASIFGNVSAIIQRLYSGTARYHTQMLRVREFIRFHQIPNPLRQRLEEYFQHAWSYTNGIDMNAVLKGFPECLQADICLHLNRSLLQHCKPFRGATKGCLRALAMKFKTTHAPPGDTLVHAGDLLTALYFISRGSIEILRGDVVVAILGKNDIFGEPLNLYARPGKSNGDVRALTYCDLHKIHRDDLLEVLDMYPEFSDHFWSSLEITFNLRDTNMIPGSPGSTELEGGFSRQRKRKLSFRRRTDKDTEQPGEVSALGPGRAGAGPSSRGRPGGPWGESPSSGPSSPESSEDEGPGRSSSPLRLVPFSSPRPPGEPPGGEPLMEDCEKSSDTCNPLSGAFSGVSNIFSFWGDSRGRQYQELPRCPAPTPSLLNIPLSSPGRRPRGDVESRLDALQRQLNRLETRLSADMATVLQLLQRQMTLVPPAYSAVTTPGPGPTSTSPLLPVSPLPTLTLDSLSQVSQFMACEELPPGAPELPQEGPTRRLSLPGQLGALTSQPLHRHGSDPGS

Compared with `Cc1ccc(SCC(=O)NC(=O)NC(C)C)c(C)c1`, `CCC(C)C(NC(=O)c1ccc(Cl)cc1)C(=O)O` (stereo not shown) is higher in “hERG current change (%, negative = inhibition) at 1uM” value: 9.87% for the first, 15.8% for the second.

First: C=CCN(CC=C)CCOc1cccc2ccccc12.O=C(O)C(=O)O
Second: Cc1cc(Br)ccc1OCCn1ccnc1.O=C(O)C(=O)O
The “hERG current change (%, negative = inhibition) at 1uM” value of the first is higher: 14.8% for the first, 4.52% for the second.

Going from `c1ccc(Cn2nnc3c(Nc4ccc5c(c4)OCO5)nc(C4CC4)nc32)cc1` to `O=C(NCc1ccccc1)c1cc(=O)[nH]c2ccccc12`, the “hERG current change (%, negative = inhibition) at 1uM” value rises from -7.89% to 12.8%.

Compared with `OC(CNCCc1c[nH]c2ccccc12)c1ccccc1` (stereo not shown), `CCOc1ccccc1OCC(=O)Nc1nc2ccccc2[nH]1` is higher in “hERG current change (%, negative = inhibition) at 1uM” value: 6.46% for the first, 33.6% for the second.

Compared with `Cc1cccc(C)c1NC(=S)NCCc1ccc(O)c(O)c1`, `COc1ccc(NCC(=O)Nc2ccc(Cl)cc2C)c(OC)c1` is lower in “hERG current change (%, negative = inhibition) at 1uM” value: 11.9% for the first, 10.9% for the second.

First: COc1ccc(NS(=O)(=O)c2cc(NC(=O)Cc3cccs3)ccc2C)cc1
Second: CC(=O)Nc1ccc(S(=O)(=O)N(C)CC(=O)N/N=C/c2cccc(O)c2)cc1
The “hERG current change (%, negative = inhibition) at 1uM” value of the first is higher: 15.6% for the first, 10% for the second.

Going from `COc1ccccc1NC(=O)c1[nH]c(C)c(C(C)=O)c1C` to `Cc1nc(NC(=O)c2oc3ccccc3c2C)sc1C(=O)N(C)C`, the “hERG current change (%, negative = inhibition) at 1uM” value falls from 10.9% to 2.34%.

Compared with `O=S(=O)(/C=C/c1ccccc1)N1CCN(c2ccccc2)CC1`, `CCOc1ccc(NC(=O)c2sc(N3CCOCC3)nc2-c2ccccc2)cc1` is higher in “hERG current change (%, negative = inhibition) at 1uM” value: 2.24% for the first, 11.5% for the second.

Going from `COCCOC1CCN(C(=O)c2cc(COc3ccc(F)cc3F)on2)CC1` to `COc1cc(/C=C/C(=O)NNc2c(F)c(F)cc(F)c2F)ccc1OC(F)F`, the “hERG current change (%, negative = inhibition) at 1uM” value falls from 9.99% to 8.11%.

First: O=C(COc1ccc(C(=O)c2ccccc2)cc1)NCc1ccc(F)cc1
Second: CCN(CC(=O)Nc1c(F)cccc1F)C(=O)c1cccc(S(=O)(=O)NCc2ccccc2)c1
The “hERG current change (%, negative = inhibition) at 1uM” value of the first is higher: -0.422% for the first, -0.508% for the second.

Compared with `C=CCOC(=O)C1=C(C)NC(C)=C(C(=O)OCC=C)C1c1ccco1`, `CCCn1c(N)c(N(CCOC)C(=O)c2cc(-c3ccco3)nc3ccccc23)c(=O)[nH]c1=O` is higher in “hERG current change (%, negative = inhibition) at 1uM” value: 10.8% for the first, 13.2% for the second.

First: COc1ccc(CNc2ncc(-c3ccc(F)cc3)n2C)cc1OC.O=C(O)C(=O)O
Second: COCCCNc1nc2c(c(=O)n(Cc3ccc(F)cc3)c(=O)n2C)n1C
The “hERG current change (%, negative = inhibition) at 1uM” value of the first is lower: -37.5% for the first, 4.22% for the second.

Compared with `CC(C)c1cc(C(=O)O)n[nH]1`, `CCCc1ccc(C(C)NC(=O)c2cnccn2)cc1` (stereo not shown) is higher in “hERG current change (%, negative = inhibition) at 1uM” value: 17.1% for the first, 18.5% for the second.

Compared with `COc1ccc(S(=O)(=O)n2nc(OC(C)=O)cc2N(C(C)=O)C(C)=O)cc1`, `Cc1ccc(C)c(S(=O)(=O)N2CCCCC2CCNC(=O)C(=O)NCCc2ccco2)c1` (stereo not shown) is lower in “hERG current change (%, negative = inhibition) at 1uM” value: 2.92% for the first, 1.68% for the second.

First: CCOc1ccccc1C(=O)NC(C(=O)OCC(=O)Nc1nnc(-c2ccccc2)o1)C(C)C (stereo not shown)
Second: CN(C)CCCN=Cc1c(-c2ccccc2)[nH]n(-c2nc3ccccc3s2)c1=O
The “hERG current change (%, negative = inhibition) at 1uM” value of the first is higher: -4.62% for the first, -58.1% for the second.

Going from `O=C(CNC(=O)c1ccc(Br)o1)NCc1ccccc1Cl` to `O=C(CCNC(=O)Cn1ccc2ccccc2c1=O)NCCc1ccc(Cl)cc1`, the “hERG current change (%, negative = inhibition) at 1uM” value rises from 8.45% to 17.4%.

First: CCC(=O)N(CC(=O)Nc1sc(C)c(C)c1C(N)=O)Cc1ccc(F)cc1
Second: Cc1ccc(C(C(=O)NC2CCCCC2)N(CCC(C)C)C(=O)CNC(=O)c2ccco2)o1 (stereo not shown)
The “hERG current change (%, negative = inhibition) at 1uM” value of the first is higher: 0.561% for the first, -2.69% for the second.

Compared with `CC(=O)c1ccc(OCC(=O)NC(=O)NC2CCCCC2)cc1`, `O=C(CN1C(=O)C2CCCCC2C1=O)Nc1ccccc1N1CCCC1` (stereo not shown) is lower in “hERG current change (%, negative = inhibition) at 1uM” value: 3.55% for the first, 2.67% for the second.

First: OCCC1CN(Cc2ccc(Oc3ncccn3)cc2)CCN1Cc1ccc(F)c(F)c1 (stereo not shown)
Second: Cc1[nH]c2ccccc2c1C(=O)CN1CCCCC1CCO (stereo not shown)
The “hERG current change (%, negative = inhibition) at 1uM” value of the first is higher: 8.89% for the first, 2.11% for the second.

Compared with `Cc1ccc(C(=O)N/C(=C\c2cccs2)C(=O)NCCCn2ccnc2)cc1`, `O=C(NCc1cccnc1)Nc1cccc(C(F)(F)F)c1` is higher in “hERG current change (%, negative = inhibition) at 1uM” value: -66% for the first, 3.47% for the second.

Compared with `O=C(Nc1ncc(Cl)cc1Cl)c1c(F)cccc1Cl`, `CC(C)CN1CCC(CN(C)Cc2nc(-c3cnccn3)no2)CC1` is higher in “hERG current change (%, negative = inhibition) at 1uM” value: 7.36% for the first, 14.9% for the second.

`CC1CC(C)CN(C(=O)C2CCN(S(=O)(=O)N3CCC4(CC3)OCCO4)CC2)C1` (stereo not shown) was tested, and the “hERG current change (%, negative = inhibition) at 1uM” value was 12%.
